Assay [1] addresses T1, EFNB1-GFP (human) (UniProt P98172).
T1 sequence: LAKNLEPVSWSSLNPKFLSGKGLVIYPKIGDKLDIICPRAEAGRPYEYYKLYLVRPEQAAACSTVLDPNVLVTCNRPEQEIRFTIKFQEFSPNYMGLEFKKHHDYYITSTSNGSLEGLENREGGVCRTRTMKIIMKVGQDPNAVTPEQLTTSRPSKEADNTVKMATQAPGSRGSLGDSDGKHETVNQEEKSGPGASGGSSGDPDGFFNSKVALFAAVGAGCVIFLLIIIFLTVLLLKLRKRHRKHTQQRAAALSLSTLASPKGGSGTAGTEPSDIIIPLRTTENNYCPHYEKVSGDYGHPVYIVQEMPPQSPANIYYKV
Briefly: co-IP; GFP-trap beads from KLB lysates of HEK293T cells overexpressing B1-GFP or GFP alone; endogenous EGFR detected by Western blot.

The target in another assay is T2, B1-2E-GFP (human) (UniProt P98172).
T2 sequence: T1 sequence with Y316E, Y317E
Briefly: co-IP; GFP-trap beads from KLB lysates of HEK293T cells co-overexpressing EGFR and GFP-tagged EFNB1 constructs; EGFR detected by Western blot.

The next assay concerns the target T3, B1-2F-GFP (human) (UniProt P98172).
T3 sequence: T1 sequence with Y316F, Y317F
The description is as above.

Assay [2] concerns the target T1, EFNB1-GFP (human). The description is as above.
The target in another assay is T4, EFNB1-GFP Y343E (human) (UniProt P98172).
T4 sequence: T1 sequence with Y316E
The assay is described as above.

A further assay addresses T5, EFNB1-GFP Y344E (human) (UniProt P98172).
T5 sequence: T1 sequence with Y317E
Described as above.

In another assay the target is T6, MBP-B1-ICD (human) (UniProt P98172).
T6 sequence: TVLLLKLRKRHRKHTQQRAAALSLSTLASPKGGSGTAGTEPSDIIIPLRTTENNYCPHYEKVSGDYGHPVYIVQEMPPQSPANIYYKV
Briefly: pull-down; 10 ug MBP-B1-ICD fusions bound to amylose beads, 2 h at 4 °C with lysate of HEK293T cells overexpressing EGFR, pre-cleared with MBP beads; washes in 20 mM Tris-HCl pH 8, 200 mM NaCl, 1 mM EDTA, 0.5% IGEPAL; only the target purified.

The target of a further assay is T7, MBP-B1-ICD-dPBM (human) (UniProt P98172).
T7 sequence: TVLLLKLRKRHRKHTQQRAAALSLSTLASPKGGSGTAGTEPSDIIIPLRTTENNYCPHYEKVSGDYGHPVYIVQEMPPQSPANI
Described as above.

Changes are numbered by the printed parent chain. These are yes or no findings as the source states them, for the method shown. In cells and extracts the contact can be indirect. Some results given as binding are weak or reduced against the parent protein; the word gives no strength. Sequences can lack the tags named with a protein.

As to “epidermal growth factor receptor (EGFR), endogenous (from UniProt P00533 25-1210)”, the binding entry with EFNB1-GFP (human) [1] was “binds”.

With “Human EGFR, overexpressed (from UniProt P00533 25-1210) (receptor)”, the binding result is “no binding” with B1-2E-GFP (human); “binds” in the assay with B1-2F-GFP (human); “binds” with EFNB1-GFP (human) [2]; “no binding” in the assay with EFNB1-GFP Y343E (human); “no binding” in the assay with EFNB1-GFP Y344E (human); “binds” in the assay with MBP-B1-ICD (human). The binding entry with MBP-B1-ICD-dPBM (human) is recorded as “no binding”.

(Values after PMC12345308.)
